# Test results from the supplement of paper PMC11283458.
# Some of the results follow. Repeats are few or missing, and single values can be far off.
# Tested on: Zdhhc20 alternative exon (endogenous)
# Assay: delta PSI of alternative exon relative to 0.4% DMSO control (RT-PCR) (percentage points); higher = more exon inclusion
# Conditions: concentration: not stated (optimised per compound); Neuro-2a
# Description: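 Reads PSI of the Mef2d reporter microexon and of endogenous mouse neural alternative exons. dPSI is relative to the 0.4% DMSO control, single replicate.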
# 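Further: exons read include endogenous Mef2d, Mast2, Ergic3 and Trappc9 microexons plus the longer neural-regulated Zdhhc20, Mgrn1 and Asph cassette exons, alongside the reporter microexon.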
row,Structure (SMILES),delta PSI of alternative exon
1,CC(=O)OC(C)(C)C=CC(=O)[C@](C)(O)[C@H]1[C@H](O)C[C@@]2(C)[C@@H]3CC=C4[C@@H](CC[C@H](O)C4(C)C)[C@]3(CO)C(=O)C[C@]12C,19.3
2,COc1ccc(/C=C/C=C2C(=O)NC(=O)NC2=O)cc1,0.156
3,O=C1NC(=O)C(=CC=Cc2ccccc2)C(=O)N1,-2.22
4,Cc1n[nH]c2ccc(-c3cncc(OC[C@@H](N)Cc4c[nH]c5ccccc45)c3)cc12,32
